Measured values reported in patent US11236120B2, “Azithromycin derivatives with epithelial barrier enhancement properties” (EpiEndo Pharmaceuticals ehf, priority 2015, dated 2022).
Some results were stated once for a whole list of compounds, not compound by compound.

Tested on: Mycobacterium avium complex (MAC)
Experiment: Assay 2: STC colorimetric microplate assay, comparison over the Mycobacteria studied
Type: cell-based, M. avium and M. intracellulare
[1] = for each one of the Mycobacteria studied
[2] = Mycobacterium avium S1002170205 and Mycobacterium intracellulare S1305150028 (tested up to 1000 μg/ml)

In the case of `CC[C@H]1OC(=O)[C@H](C)[C@@H](O)[C@H](C)[C@@H](O[C@@H]2O[C@H](C)C[C@H](N(C)C)[C@H]2O)[C@](C)(O)C[C@@H](C)CN(C)[C@H](C)[C@@H](O)[C@]1(C)O` [Example 1, (2R,3S,4R,5R,8R,10R,11R,12S,13S,14R)-11-[(2S,3R,4S,6R)-4-(dimethylamino)-3-hydroxy-6-methyl-tetrahydropyran-2-yl]oxy-2-ethyl-3,4,10,13-tetrahydroxy-3,5,6,8,10,12,14-heptamethyl-1-oxa-6-azacyclopentadecan-15-one], the “MIC concentration relative to the MIC concentration of Azithromycin” value [1] is reported as “over 4 ×”.

`CC[C@H]1OC(=O)[C@H](C)[C@@H](O)[C@H](C)[C@@H](O[C@@H]2O[C@H](C)C[C@H](N(C)C)[C@H]2OC(=O)c2ccccc2)[C@](C)(O)C[C@@H](C)CN(C)[C@H](C)[C@@H](O)[C@]1(C)O` [Example 2] was tested, and the “MIC concentration relative to the MIC concentration of Azithromycin” value [2] was “over 15 ×” and the “MIC concentration relative to the MIC concentration of Azithromycin” value [1] was “over 4 ×”.

`CC[C@H]1OC(=O)[C@H](C)[C@@H](OC(=O)NCc2ccccc2)[C@H](C)[C@@H](O[C@@H]2O[C@H](C)C[C@H](N(C)C)[C@H]2OC(=O)c2ccccc2)[C@](C)(O)C[C@@H](C)CN(C)[C@H](C)[C@H]2OC(=O)O[C@@]21C` [Example 4, [(2S,3R,4S,6R)-2-[[(1R,2R,5R,7R,8R,9S,10S,11R,14R,15R)-10-(benzylcarbamoyloxy)-14-ethyl-7-hydroxy-2,3,5,7,9,11,15-heptamethyl-12,17-dioxo-13,16,18-trioxa-3-azabicyclo[13.3.0]octadecan-8-yl]oxy]-4-(dimethylamino)-6-methyl-tetrahydropyran-3-yl]benzoate] was tested, and the “MIC concentration relative to the MIC concentration of Azithromycin” value [2] was “over 15 ×” and the “MIC concentration relative to the MIC concentration of Azithromycin” value [1] was “over 4 ×”.

With `CC[C@H]1OC(=O)[C@H](C)[C@@H](O[C@H]2C[C@@](C)(OC)[C@@H](O)[C@H](C)O2)[C@H](C)[C@@H](O[C@@H]2O[C@H](C)C[C@H](N(C)S(=O)(=O)c3ccc4ccccc4c3)[C@H]2O)[C@](C)(O)C[C@@H](C)CN(C)[C@H](C)[C@@H](O)[C@]1(C)O` [Example 8, N-[(2S,3R,4S,6R)-2-[[(2R,3S,4R,5R,8R,10R,11R,12S,13S,14R)-2-ethyl-3,4,10-trihydroxy-13-[(2R,4R,5S,6S)-5-hydroxy-4-methoxy-4,6-dimethyl-tetrahydropyran-2-yl]oxy-3,5,6,8,10,12,14-heptamethyl-15-oxo-1-oxa-6-azacyclopentadec-11-yl]oxy]-3-hydroxy-6-methyl-tetrahydropyran-4-yl]-N-methyl-naphthalene-2-sulfonamide] the “MIC concentration relative to the MIC concentration of Azithromycin” value [1] was “over 4 ×”.

In the case of `CC[C@H]1OC(=O)[C@H](C)[C@@H](O)[C@H](C)[C@@H](O[C@@H]2O[C@H](C)C[C@H](N(C)S(=O)(=O)c3ccc4ccccc4c3)[C@H]2O)[C@](C)(O)C[C@@H](C)CN(C)[C@H](C)[C@@H](O)[C@]1(C)O` [Example 9, N-[(2S,3R,4S,6R)-2-[[(2R,3S,4R,5R,8R,10R,11R,12S,13S,14R)-2-ethyl-3,4,10,13-tetrahydroxy-3,5,6,8,10,12,14-heptamethyl-15-oxo-1-oxa-6-azacyclopentadec-11-yl]oxy]-3-hydroxy-6-methyl-tetrahydropyran-4-yl]-N-methyl-naphthalene-2-sulfonamide], the “MIC concentration relative to the MIC concentration of Azithromycin” value [2] is reported as “over 15 ×” and the “MIC concentration relative to the MIC concentration of Azithromycin” value [1] is reported as “over 4 ×”.

`CC[C@H]1OC(=O)[C@H](C)[C@@H](OC(C)=O)[C@H](C)[C@@H](O[C@@H]2O[C@H](C)C[C@H](N(C)C)[C@H]2OC(=O)c2ccccc2)[C@](C)(O)C[C@@H](C)CN(C)[C@H](C)[C@@H](OC(C)=O)[C@]1(C)O` [Example 11, [(2S,3R,4S,6R)-2-[[(2R,3R,4R,5R,8R,10R,11R,12S,13S,14R)-4,13-diacetoxy-2-ethyl-3,10-dihydroxy-3,5,6,8,10,12,14-heptamethyl-15-oxo-1-oxa-6-azacyclopentadec-11-yl]oxy]-4-(dimethylamino)-6-methyl-tetrahydropyran-3-yl]benzoate] was tested, and the “MIC concentration relative to the MIC concentration of Azithromycin” value [2] was “over 15 ×” and the “MIC concentration relative to the MIC concentration of Azithromycin” value [1] was “over 4 ×”.

In the case of `CC[C@H]1OC(=O)[C@H](C)[C@@H](O)[C@H](C)[C@@H](O[C@@H]2O[C@H](C)C[C@H](N(C)C)[C@H]2OC(=O)c2ccc(-c3ccc(S(C)(=O)=O)cc3)cc2)[C@](C)(O)C[C@@H](C)CN(C)[C@H](C)[C@@H](O)[C@]1(C)O` [Example 12, [(2S,3R,4S,6R)-4-(dimethylamino)-2-[[(2R,3S,4R,5R,8R,10R,11R,12S,13S,14R)-2-ethyl-3,4,10,13-tetrahydroxy-3,5,6,8,10,12,14-heptamethyl-15-oxo-1-oxa-6-azacyclopentadec-11-yl]oxy]-6-methyl-tetrahydropyran-3-yl]4-(4-methylsulfonylphenyl) benzoate], the “MIC concentration relative to the MIC concentration of Azithromycin” value [2] is reported as “over 15 ×” and the “MIC concentration relative to the MIC concentration of Azithromycin” value [1] is reported as “over 4 ×”.

In the case of `CC[C@H]1OC(=O)[C@H](C)[C@@H](O)[C@H](C)[C@@H](O[C@@H]2O[C@H](C)C[C@H](N(C)C)[C@H]2OC(=O)CC[C@@H](NC(=O)OCc2ccccc2)C(=O)OCc2ccccc2)[C@](C)(O)C[C@@H](C)CN(C)[C@H](C)[C@@H](O)[C@]1(C)O` [Example 15, O1-benzylO5-[(2S,3R,4S,6R)-4-(dimethylamino)-2-[[(2R,3S,4R,5R,8R,10R,11R,12S,13S,14R)-2-ethyl-3,4,10,13-tetrahydroxy-3,5,6,8,10,12,14-heptamethyl-15-oxo-1-oxa-6-azacyclopentadec-11-yl]oxy]-6-methyl-tetrahydropyran-3-yl](2R)-2-(benzyloxycarbonylamino) pentanedioate], the “MIC concentration relative to the MIC concentration of Azithromycin” value [2] is reported as “over 15 ×” and the “MIC concentration relative to the MIC concentration of Azithromycin” value [1] is reported as “over 4 ×”.

With `CC[C@H]1OC(=O)[C@H](C)[C@@H](O)[C@H](C)[C@@H](O[C@@H]2O[C@H](C)C[C@H](N(C)C)[C@H]2OC(=O)CCC(=O)O)[C@](C)(O)C[C@@H](C)CN(C)[C@H](C)[C@@H](O)[C@]1(C)O` [Example 17, 4-[(2S,3R,4S,6R)-4-(dimethylamino)-2-[[(2R,3S,4R,5R,8R,10R,11R,12S,13S,14R)-2-ethyl-3,4,10,13-tetrahydroxy-3,5,6,8,10,12,14-heptamethyl-15-oxo-1-oxa-6-azacyclopentadec-11-yl]oxy]-6-methyl-tetrahydropyran-3-yl]oxy-4-oxo-butanoic acid] the “MIC concentration relative to the MIC concentration of Azithromycin” value [2] was “over 15 ×” and the “MIC concentration relative to the MIC concentration of Azithromycin” value [1] was “over 4 ×”.

In the case of `CC[C@H]1OC(=O)[C@H](C)[C@@H](O)[C@H](C)[C@@H](O[C@@H]2O[C@H](C)C[C@H](N(C)C)[C@H]2OC(=O)c2cccnc2)[C@](C)(O)C[C@@H](C)CN(C)[C@H](C)[C@@H](O)[C@]1(C)O` [Example 19, [(2S,3R,4S,6R)-4-(dimethylamino)-2-[[(2R,3S,4R,5R,8R,10R,11R,12S,13S,14R)-2-ethyl-3,4,10,13-tetrahydroxy-3,5,6,8,10,12,14-heptamethyl-15-oxo-1-oxa-6-azacyclopentadec-11-yl]oxy]-6-methyl-tetrahydropyran-3-yl] pyridine-3-carboxylate], the “MIC concentration relative to the MIC concentration of Azithromycin” value [2] is reported as “over 15 ×” and the “MIC concentration relative to the MIC concentration of Azithromycin” value [1] is reported as “over 4 ×”.

For `CC[C@H]1OC(=O)[C@H](C)[C@@H](O)[C@H](C)[C@@H](O[C@@H]2O[C@H](C)C[C@H](N(C)C)[C@H]2OC(=O)c2cc(C)nn2C)[C@](C)(O)C[C@@H](C)CN(C)[C@H](C)[C@@H](O)[C@]1(C)O` [Example 20, [(2S,3R,4S,6R)-4-(dimethylamino)-2-[[(2R,3S,4R,5R,8R,10R,11R,12S,13S,14R)-2-ethyl-3,4,10,13-tetrahydroxy-3,5,6,8,10,12,14-heptamethyl-15-oxo-1-oxa-6-azacyclopentadec-11-yl]oxy]-6-methyl-tetrahydropyran-3-yl]2,5-dimethylpyrazole-3-carboxylate], the “MIC concentration relative to the MIC concentration of Azithromycin” value [2] was “over 15 ×” and the “MIC concentration relative to the MIC concentration of Azithromycin” value [1] was “over 4 ×”.

`CC[C@H]1OC(=O)[C@H](C)[C@@H](O)[C@H](C)[C@@H](O[C@@H]2O[C@H](C)C[C@H](N(C)C)[C@H]2OC(=O)c2ccc(Cl)s2)[C@](C)(O)C[C@@H](C)CN(C)[C@H](C)[C@@H](O)[C@]1(C)O` [Example 21, [(2S,3R,4S,6R)-4-(dimethylamino)-2-[[(2R,3S,4R,5R,8R,10R,11R,12S,13S,14R)-2-ethyl-3,4,10,13-tetrahydroxy-3,5,6,8,10,12,14-heptamethyl-15-oxo-1-oxa-6-azacyclopentadec-11-yl]oxy]-6-methyl-tetrahydropyran-3-yl]5-chlorothiophene-2-carboxylate] was tested, and the “MIC concentration relative to the MIC concentration of Azithromycin” value [2] was “over 15 ×” and the “MIC concentration relative to the MIC concentration of Azithromycin” value [1] was “over 4 ×”.

`CCc1ccc(C(=O)O[C@H]2[C@H](O[C@@H]3[C@@H](C)[C@H](O)[C@@H](C)C(=O)O[C@H](CC)[C@@](C)(O)[C@H](O)[C@@H](C)N(C)C[C@H](C)C[C@@]3(C)O)O[C@H](C)C[C@@H]2N(C)C)cc1` [Example 22, [(2S,3R,4S,6R)-4-(dimethylamino)-2-[[(2R,3S,4R,5R,8R,10R,11R,12S,13S,14R)-2-ethyl-3,4,10,13-tetrahydroxy-3,5,6,8,10,12,14-heptamethyl-15-oxo-1-oxa-6-azacyclopentadec-11-yl]oxy]-6-methyl-tetrahydropyran-3-yl]4-ethylbenzoate] was tested, and the “MIC concentration relative to the MIC concentration of Azithromycin” value [2] was “over 15 ×” and the “MIC concentration relative to the MIC concentration of Azithromycin” value [1] was “over 4 ×”.

In the case of `CC[C@H]1OC(=O)[C@H](C)[C@@H](O)[C@H](C)[C@@H](O[C@@H]2O[C@H](C)C[C@H](N(C)C)[C@H]2OC(=O)c2ccc3ccccc3c2)[C@](C)(O)C[C@@H](C)CN(C)[C@H](C)[C@@H](O)[C@]1(C)O` [Example 24, [(2S,3R,4S,6R)-4-(dimethylamino)-2-[[(2R,3S,4R,5R,8R,10R,11R,12S,13S,14R)-2-ethyl-3,4,10,13-tetrahydroxy-3,5,6,8,10,12,14-heptamethyl-15-oxo-1-oxa-6-azacyclopentadec-11-yl]oxy]-6-methyl-tetrahydropyran-3-yl]naphthalene-2-carboxylate], the “MIC concentration relative to the MIC concentration of Azithromycin” value [2] is reported as “over 15 ×” and the “MIC concentration relative to the MIC concentration of Azithromycin” value [1] is reported as “over 4 ×”.
